Data taken from the supplement of paper PMC11417369.
This is one part of the list.

System: PfHDP1 homeodomain (GST-tagged)
Assay: gcPBM binding intensity (ln(normalized median fluorescence intensity)); higher = stronger DNA binding
In short: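 Using an Agilent 4 × 180k array, primer-extended double-stranded 36-bp intergenic genomic probes and negative controls were exposed for 1 h to GST-fused P. falciparum DNA-binding domains expressed in E. coli. Binding was carried out in 1× PBS with 1% milk, 0.2 mg/ml BSA, 0.5% salmon testes DNA and 0.03% Triton X-100, and protein was detected with Alexa488 anti-GST antibody and a 488 nm scan. Binding intensity is the highest Masliner-normalised natural-log median intensity across replicate spots of either probe orientation.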

In order of rising “gcPBM binding intensity (ln)” value:
1. AAAAGTTTTATTTAAATGAATTAATCTTTACTATAT [CACACA_negctrl_site282]  5.87
2. AAATGATATAAATTATAAAATGGATTTTTTCCATTG [CACACA_negctrl_site420]  5.91
3. TACCTAATTCGGTCCCGTACAAGTTAGTTTCAATTC [XGTACX_site2703]  5.91
4. AATAAATTTCAAAATTGTACTCATTTCCTTTCCCAA [XGTACX_site5887]  6.04
5. TAACACACTAAGAAAAGTACTGATTAATATAATTTT [XGTACX_site5536]  6.09
6. TTTTTTGACATTCCTTTTAATAATTAACGAAAGGCA [GTGCAC_negctrl_site377]  6.13
7. CGCCTATAAGCTTAGACACACAAATAAATAAATATA [CACACA_site1264]  6.14
8. ATTATTTTATAATTCACACATAAATAAAAAAAAAAT [CACACA_site5290]  6.2
9. TAAATATTATTTCATAGTACTTTTATTATTGATATA [XGTACX_site5566]  6.21
10. TACGCCTATAACGGCTGTACACCTTACTTTTTTTAA [XGTACX_site6818]  6.22
11. TTAAAAATGTTGGAAAGTACATATTTTTTAAAAGTA [XGTACX_site802]  6.25
12. AAATACAAGGGACATGCATACCACTATTTTTTAAAT [TGCATGCA_site588]  6.28
13. TTTATATAATAGTTATGTACTTAAACGAAAGATACA [XGTACX_site8495]  6.31
14. TATAATCAATGCCAAAGTACATATTAATATATTTAT [XGTACX_site4558]  6.32
15. AATATATCGCATAGTTGTACAGAATTTTTACTTTTA [XGTACX_site8192]  6.33
16. TAATGTATATGTAAATGTACATGTATATTATTTAAA [XGTACX_site1840]  6.34
17. TATTGATTTAGAAACACACACTCGAAGATGTTTAAC [CACACA_site1129]  6.36
18. CAATTTATAAAGAAAACACACATATACATATATACA [CACACA_site1260]  6.36
19. TTTCAATACTGAAACTGTACTTGTTTTACTTCTATT [XGTACX_site5924]  6.37
20. TTCATTCAAATCCAAGCATGCTTTATTAAAAAATTA [TGCATGCA_site567]  6.38
21. TATTTTTTATAATAATGTACATATATATATATAATA [XGTACX_site2329]  6.4
22. TTTAAAAAATGTTATATTATATAATTAAAAAAAAAA [CACACA_negctrl_site1509]  6.4
23. ATATAGATATATAGTAGTACTTGTTATATAAGATAA [XGTACX_site6336]  6.44
24. TTAGGAAGCTCACAAAATAAAGTGAAAAGAAGAAAA [XGTACX_negctrl_site572]  6.45
25. TTCTTCAAAAAAAATTGTACACATCTCTCAAATGTT [XGTACX_site2952]  6.47
26. AAGATATTTGTATAATGTACAAAACTATATAAAACT [XGTACX_site1433]  6.47
27. ACAGAGCTTTAAATACGTACATAATATATATTAAAT [XGTACX_site8221]  6.51
28. CTTAAAATGATAATATGTACACATAAATAATATATA [XGTACX_site8330]  6.52
29. TTTTGTAGTTTATAAATAAAAGAGAATATGGTGCTT [CACACA_negctrl_site413]  6.52
30. TAAGTTTGTCAATCAACACACACCTATTTATTATAT [CACACA_site3919]  6.53
31. AAATATACAAAATATACACACATATTTATTTATGAT [CACACA_site2051]  6.53
32. ATCAAACCTTTTAAATGTACATTCGGAGTAAAAAAA [XGTACX_site282]  6.54
33. TATGATTTTTATATATGTACGTATGGTGTTTTACAA [XGTACX_site6100]  6.56
34. TCATCATATTATATATGTACATATATAATAATTTAT [XGTACX_site1625]  6.57
35. CTCTATATATTATTATGTACTAAATGTATGTATGTA [XGTACX_site7151]  6.6
36. ATGTATGTGTAACATAGTACTTTTTAAAAGGATATT [XGTACX_site5328]  6.6
37. TGATTTCCAGGTTATTGTACAAAATTAATTTTCGAA [XGTACX_site2491]  6.6
38. CTACCAAATCTATAGACACACATATATATATATATT [CACACA_site2486]  6.61
39. ATAACATACATAACAACACACAATATTTATCTGTAT [CACACA_site4279]  6.61
40. AAGATAAAATTATGTAGTACAAAAAAAAATAAAAAA [XGTACX_site139]  6.61
41. AAAACACAATTTATTACACACATATATTATATATTA [CACACA_site1420]  6.62
42. TTTAAAAATTAATTCTGTACACATTTTTATTATATT [XGTACX_site4212]  6.64
43. ATAAAATTTTATATGGGTACATAATATAATATATAT [XGTACX_site8160]  6.64
44. GTTACTGCATACATAACACACATATTCAAAACACAT [CACACA_site3502]  6.65
45. TATAAATTAATGACATGTACATAAAAGTATAGATGT [XGTACX_site6534]  6.66
46. GAACTAATAATGAAAAGTACACATACACATATATAT [XGTACX_site6789]  6.68
47. TATATATATGTATACACACATACAAATATGTAAAAA [CACACA_site3720]  6.7
48. AACAATTATTTATCTACACACTTTTATGTTATTTAC [CACACA_site9]  6.7
49. TTATAATTTTTTTTTGCATGTGGGTTTTTTTTTGTT [TGCATGCA_site968]  6.72
50. TATTAATTGTGGCACCTTGTATGTTTACAATGACAT [CACACA_negctrl_site1383]  6.75
51. TAAAATTTAAGTTATACACACTTAAGTAACATCATC [CACACA_site6395]  6.76
52. AATGGATGAATGAATGTATGAATGAATGTATGAATG [CACACA_negctrl_site91]  6.76
53. TAAAAAATATAAATGACACACACTTAAAAACAAAGA [CACACA_site671]  6.83
54. ACCATTTGAAAATTCACACACTTTATTTTGTTATAT [CACACA_site5976]  6.85
55. AATATCATATAAAAATGTACAAATTCTAAAACACGA [XGTACX_site1442]  6.85
56. AAAAAAAAAAAAAAGAGTACACAGACGTTCAAAGGT [XGTACX_site7566]  6.85
57. AAATAATTAAAAAAAAGTACACATGTGACTACATAT [XGTACX_site8767]  6.88
58. TATATAATATTACGTTGTACACTTTAATCTCCCTTC [XGTACX_site5577]  6.94
59. ATGAATGAATAAAGAAGTACGGAAATATTAACAAAA [XGTACX_site4695]  7.01
60. TATTGGGGGTATAAACACAGTAAGTAAATAAATAAA [CACACA_negctrl_site1680]  7.02
61. ATTCCTGGACCGTTCATGCACTTGCAGAACGTCCAT  7.07
62. TATAGATACATATACACACACACACCCACATATATA [CACACA_site3436]  7.08
63. TATTAAACAAATTATGCAAAAATAAATCAATATGTT [CACACA_negctrl_site171]  7.09
64. ATTGAAAAATAAAAATGTACACATGTAGCATACCAT [XGTACX_site3275]  7.17
65. TTCTTCTGTTTTATTACACACCATTTTGTGTCTACA [CACACA_site8643]  7.31
66. TATTTACAGACATGCGCACACATAAATAAATAATAG [CACACA_site2411]  7.5
67. ACTAATATGCAATATTGTACATATATATAGAAATAT [XGTACX_site5273]  7.76
68. AAATGTATACACATGGTGCGTAATATATTATATATA [GTGCAC_site9877]  7.85
69. TGTATGTATTAATGCGCACACAAAAAATAACAATAT [CACACA_site1848]  7.88
70. ATATATATAAAACACACACACAAAAAAAATAAAGAC [CACACA_site117]  7.9
71. AAAGATATTTTTATCTCACACATATAATATATATAT [CACACA_site5478]  8
72. TATTTTCATTTGCGCGCACACAATAATAATTTTTGG [CACACA_site3525]  8.28
73. AAAAAAAAAAAAAGTGCACACGATTTAAGGCCTATA [CACACA_site2823]  8.86
74. ATATATATATATAAATGTACATTGTGTGTTGTAAGA [XGTACX_site2434]  8.88
75. GTATATTATTTACGTTTGCACTTCATTTTATAGTAA  9.08
76. ATAAAAAAAAAATAATGTACTTATATATATATATAT [XGTACX_site8282]  9.13
77. ATAAAGAAACATATATGTACTTATATATATATATAT [XGTACX_site5625]  9.18
78. AAATAAAGCACACCGACACACACATATATATATATA [CACACA_site8256]  9.21
79. ATCAAAGATAAATTTACACACATATATATATATATA [CACACA_site2969]  9.28
80. TGTGAAATAAAATTTGTACACACATATATATATATA [CACACA_site8093]  9.29
81. TAAATAAATATATATACACACATATATATATATATA [CACACA_site598]  9.3
82. TATAGAAAATTTATATGTACATATATATATATATAT [XGTACX_site4451]  9.33
83. GTATTCATGCTAAAGGTGCAATAATTTTTATAATAA [GTGCAC_site9603]  9.39
84. ATATATATATATATATGTACACATATATTTCTTTTC [XGTACX_site3443]  9.41
85. CGAAATCATATGTACACACACATATATATATATATA [CACACA_site2151]  9.44
86. TTTATGAAATGTTGCACACAAAAAACAACATGTTTT [CACACA_site1440]  9.63
87. ATATATAATTCCCAAGTGCATTTATTTTAATTATTA  9.87
88. ATTGTATCTGTATATGCACACAATATCTGTACTTCT [CACACA_site5445]  10.1
89. CACTTTAATTTATGCACACATATGGAACAACAGCCA [CACACA_site994]  10.6
